Laboratory results published in patent US9650358B2 (priority 2013, dated 2017).

Tests used:
A431 cells = test: cells; settings: Homo sapiens, A-431, 24 h, read-out: A431 viability EC50
H929 cells = test: cells; settings: Homo sapiens, NCI-H929, 24 h, read-out: H929 viability EC50

SMILES	EC50 (A431 cells)	EC50 (H929 cells)
CC(C(=O)Nc1cc(-c2ccc3ncn(Cc4cccc(F)c4)c3c2)c(Cl)cn1)n1ccccc1=O (stereo not drawn) [Example 183, N-{5-chloro-4-[1-(3-fluorobenzyl)-1H-benzimidazol-6-yl]pyridin-2-yl}-2-(2-oxopyridin-1(2H)-yl)propanamide]	0.031 µM	0.05 µM
O=C(Nc1cc(-c2cc3c(cc2F)ncn3Cc2cccc(F)c2)c(Cl)cn1)[C@@H]1CCCNC1 [Example 135, (3R)—N-{5-chloro-4-[5-fluoro-1-(3-fluorobenzyl)-1H-benzimidazol-6-yl]pyridin-2-yl}piperidine-3-carboxamide]	0.011 µM	0.11 µM
Fc1cccc(Cn2cnc3ccc(-c4cc(N[C@H]5CC[C@H](NCc6ccccn6)CC5)ncc4Cl)cc32)c1 [Example 225, trans-N-{5-chloro-4-[1-(3-fluorobenzyl)-1H-benzimidazol-6-yl]pyridin-2-yl}-N′-(pyridin-2-ylmethyl)cyclohexane-1,4-diamine]	0.027 µM	0.076 µM
Fc1cccc(Cn2cnc3ccc(-c4cc(N[C@H]5CC[C@H](NCc6ccncc6)CC5)ncc4Cl)cc32)c1 [Example 227, trans-N-{5-chloro-4-[1-(3-fluorobenzyl)-1H-benzimidazol-6-yl]pyridin-2-yl}-N′-(pyridin-4-ylmethyl)cyclohexane-1,4-diamine]	0.024 µM	0.096 µM
O=C1CC(C(=O)Nc2cc(-c3ccc4ncn(Cc5cccc(F)c5)c4c3)c(Cl)cn2)C1 [Example 189, N-{5-chloro-4-[1-(3-fluorobenzyl)-1H-benzimidazol-6-yl]pyridin-2-yl}-3-oxocyclobutanecarboxamide]	0.078 µM	0.073 µM
Fc1cccc(Cn2cnc3ccc(-c4cc(N[C@H]5CC[C@H](NCC6CCCO6)CC5)ncc4Cl)cc32)c1 (relative stereo) [Example 233, trans-N-{5-chloro-4-[1-(3-fluorobenzyl)-1H-benzimidazol-6-yl]pyridin-2-yl}-N′-(tetrahydrofuran-2-ylmethyl)cyclohexane-1,4-diamine]	0.008 µM	–
O=C(Nc1cc(-c2ccc3ncn(Cc4ccccc4F)c3c2)c(Cl)cn1)[C@@H]1CCCNC1 [Example 21, (3R)—N-{5-chloro-4-[1-(2-fluorobenzyl)-1H-benzimidazol-6-yl]pyridin-2-yl}piperidine-3-carboxamide]	0.02 µM	–
O[C@H]1CC[C@H](Nc2cc(-c3ccc4ncn(Cc5cccc(F)c5)c4c3)c(Cl)cn2)CC1 [Example 11, trans-4-({5-chloro-4-[1-(3-fluorobenzyl)-1H-benzimidazol-6-yl]pyridin-2-yl}amino)cyclohexanol]	0.029 µM	–
O=C1CC(C(=O)Nc2cc(-c3cnc4ccn(Cc5cncc(F)c5)c4c3)c(Cl)cn2)C1 [Example 304, N-(5-chloro-4-{1-[(5-fluoropyridin-3-yl)methyl]-1H-pyrrolo[3,2-b]pyridin-6-yl}pyridin-2-yl)-3-oxocyclobutanecarboxamide]	–	0.69 µM
CS(=O)(=O)CCn1nnc2ccc(-c3cc(NC(=O)[C@@H]4CCCNC4)ncc3Cl)cc21 [Example 112, (3R)—N-(5-chloro-4-{1-[2-(methylsulfonyl)ethyl]-1H-benzotriazol-6-yl}pyridin-2-yl)piperidine-3-carboxamide]	–	3.5 µM
O=C(Nc1cc(-c2ccc3ncn(CC4CCS(=O)(=O)CC4)c3c2)c(Cl)cn1)[C@@H]1CCCNC1 [Example 23, (3R)—N-(5-chloro-4-{1-[(1,1-dioxidotetrahydro-2H-thiopyran-4-yl)methyl]-1H-benzimidazol-6-yl}pyridin-2-yl)piperidine-3-carboxamide]	–	0.69 µM
Fc1cccc(Cn2cnc3ccc(-c4cc(NCc5c[nH]cn5)ncc4Cl)cc32)c1 [Example 50, 5-chloro-4-[1-(3-fluorobenzyl)-1H-benzimidazol-6-yl]-N-(1H-imidazol-4-ylmethyl)pyridin-2-amine]	–	1.8 µM
O=C(Nc1cc(-c2ccc3nnn(Cc4cccs4)c3c2)c(Cl)cn1)[C@@H]1CCCNC1 [Example 325, (3R)—N-{5-chloro-4-[1-(thiophen-2-ylmethyl)-1H-benzotriazol-6-yl]pyridin-2-yl}piperidine-3-carboxamide]	–	1.6 µM
